# Experimental data reported in a collection of fitness landscapes (doi:10.1126/science.1257360).
# The list shows a part of the results.
# B1: PhoQ; a variant is named by its letters at X, in order, P23837 (parent)
# chain: MKKLLRLFFPLSLRVRFLLATAAVVLVLSLAYGMVALIGYSVSFDKTTFRLLRGESNLFYTLAKWENNKLHVELPENIDKQSPTMTLIYDENGQLLWAQRDVPWLMKMIQPDWLKSNGFHEIEADVNDTSLLLSGDHSIQQQLQEVREDDDDAEMTHSVAVNVYPATSRMPKLTIVVVDTIPVELKSSYMVWSWFIYVLSANLLLVIPLLWVAAWWSLRPIEALAKEVRELEEHNRELLNPATTRELTSLVRNLNRLLKSERERYDKYRTTLTDLTHSLKTPLXXLQXXLRSLRSEKMSVSDAEPVMLEQISRISQQIGYYLHRASMRGGTLLSRELHPVAPLLDNLTSALNKVYQRKGVNISLDISPEISFVGEQNDFVEVMGNVLDNACKYCLEFVEISARQTDEHLYIVVEDDGPGIPLSKREVIFDRGQRVDTLRPGQGVGLAVAREITEQYEGKIVAGESMLGGARMEVIFGRQHSAPKDE
# Variants of: B1
# Assay: enrichment ratio after two sorts for PhoP signalling (ratio (wild type AVST 3.29)); higher = more functional
# Conditions: with PhoP (E. coli)
row,Variant,enrichment ratio
1,FTFP,≤ 0.25
2,VWSG,≤ 0.25
3,PTPK,≤ 0.25
4,MSLE,3.24
5,YSEY,≤ 0.25
6,KLTM,≤ 0.25
7,TCVV,≤ 0.25
8,FCFH,≤ 0.25
9,WSII,≤ 0.25
10,TVNK,≤ 0.25
11,QHGH,≤ 0.25
12,NGNS,≤ 0.25
13,ADWN,≤ 0.25
14,EAMC,≤ 0.25
15,PWQQ,≤ 0.25
16,GVPN,≤ 0.25
17,KPLK,≤ 0.25
18,HYPW,≤ 0.25
19,ITAM,0.308
20,SDPH,≤ 0.25
21,PKYQ,≤ 0.25
22,FVYR,≤ 0.25
23,TPRF,≤ 0.25
24,LFPN,≤ 0.25
25,KYWH,≤ 0.25
26,IWRN,≤ 0.25

row,Variant,enrichment ratio
1,HRQR,≤ 0.25
2,DMNA,≤ 0.25
3,KHMK,≤ 0.25
4,AHGF,≤ 0.25
5,SWKC,≤ 0.25
6,TPHH,≤ 0.25
7,TIWI,≤ 0.25
8,NNWM,≤ 0.25
9,AGKS,≤ 0.25
10,QIHS,3.97
11,IYHH,≤ 0.25
12,DFSV,≤ 0.25
13,PLRS,≤ 0.25
14,RQWY,≤ 0.25
15,VKYG,≤ 0.25
16,GQVT,≤ 0.25
17,AYRS,≤ 0.25
18,VWRK,≤ 0.25
19,MLGV,≤ 0.25
20,YGTE,≤ 0.25
21,WTDI,≤ 0.25
22,DFHR,≤ 0.25
23,KQLP,≤ 0.25
24,IVHH,≤ 0.25
25,SNLA,6.53
26,VKFG,≤ 0.25

row,Variant,enrichment ratio
1,MAVP,≤ 0.25
2,PPIT,≤ 0.25
3,YYAT,≤ 0.25
4,QFIT,≤ 0.25
5,RFET,≤ 0.25
6,SLIV,≤ 0.25
7,SQYS,≤ 0.25
8,WGEH,≤ 0.25
9,VWAY,≤ 0.25
10,TYFG,≤ 0.25
11,FIHN,≤ 0.25
12,VTSW,≤ 0.25
13,HSWA,≤ 0.25
14,LAHV,≤ 0.25
15,HSPT,≤ 0.25
16,FYFY,≤ 0.25
17,GKTI,≤ 0.25
18,PGEL,≤ 0.25
19,LHWE,≤ 0.25
20,PLIL,≤ 0.25
21,NDTP,≤ 0.25
22,PRCM,≤ 0.25
23,RQGG,≤ 0.25
24,TGRA,≤ 0.25
25,AKSQ,20.1
26,KVPR,≤ 0.25

row,Variant,enrichment ratio
1,GERV,≤ 0.25
2,DDVH,≤ 0.25
3,EGWR,≤ 0.25
4,SSIR,≤ 0.25
5,TIPR,≤ 0.25
6,LTWS,≤ 0.25
7,NKEA,≤ 0.25
8,VRDK,≤ 0.25
9,WGSE,≤ 0.25
10,MRSE,≤ 0.25
11,KINI,≤ 0.25
12,KIWF,≤ 0.25
13,KWMC,≤ 0.25
14,GKLH,≤ 0.25
15,YQTF,≤ 0.25
16,LDFR,≤ 0.25
17,GYSL,≤ 0.25
18,NKVL,≤ 0.25
19,DKFW,≤ 0.25
20,NCPN,≤ 0.25
21,MGCV,14
22,TIYM,2.83
23,FNQP,≤ 0.25
24,GKGV,≤ 0.25
25,RSAK,≤ 0.25
26,SGVP,≤ 0.25

row,Variant,enrichment ratio
1,WNLD,≤ 0.25
2,WGWP,≤ 0.25
3,GCLL,18.3
4,MVFP,≤ 0.25
5,LVCM,≤ 0.25
6,DWAI,≤ 0.25
7,TVNM,13.5
8,LFWF,≤ 0.25
9,LCVW,≤ 0.25
10,QSRC,≤ 0.25
11,DAQF,≤ 0.25
12,YYWT,≤ 0.25
13,QSPQ,≤ 0.25
14,YVLG,1.8
15,YSLM,9.22
16,IEPM,≤ 0.25
17,LPEY,≤ 0.25
18,RDFM,≤ 0.25
19,HRWY,≤ 0.25
20,WFTM,≤ 0.25
21,RWLE,≤ 0.25
22,ARKY,≤ 0.25
23,VTPI,≤ 0.25
24,GYGH,≤ 0.25
25,AHCD,≤ 0.25
26,DFNQ,≤ 0.25

row,Variant,enrichment ratio
1,KPAN,≤ 0.25
2,TTLS,15.1
3,TADE,≤ 0.25
4,DWQT,≤ 0.25
5,YGAG,≤ 0.25
6,FNMI,≤ 0.25
7,PGNM,≤ 0.25
8,LTFK,≤ 0.25
9,TWVK,≤ 0.25
10,HASA,≤ 0.25
11,NGLY,≤ 0.25
12,KYFL,≤ 0.25
13,DDKF,≤ 0.25
14,TCVQ,≤ 0.25
15,MRCI,≤ 0.25
16,TIAV,9.45
17,YTCY,≤ 0.25
18,QCPG,≤ 0.25
19,IPDQ,≤ 0.25
20,TWPL,≤ 0.25
21,HVNK,≤ 0.25
22,ANIR,≤ 0.25
23,MPVP,0.741
